In the supplement of paper PMC11417369:
± gives the standard deviation of the averaged measurements. The list shows a part of the results.

The sequences below were run on PfAP2-G AP2 domain (GST-tagged) (assay: gcPBM binding intensity (ln(normalized median fluorescence intensity)); higher = stronger DNA binding).
Procedure, shortened: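 An Agilent 4 × 180k array of primer-extended double-stranded 36-bp intergenic genomic probes, with negative controls, was incubated for 1 h with GST-tagged P. falciparum DNA-binding domains expressed in E. coli. Alexa488 anti-GST antibody detected bound protein, scanned at 488 nm. Binding intensity is the highest Masliner-normalised natural-log median intensity across replicate spots of either probe orientation.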

| Sequence | gcPBM binding intensity (ln) |
| --- | --- |
| TGTATAAAAAGAAAAAATCGTATGTGTTATCAAAAA [GTGCAC_negctrl_site490] | 9.82 ± 0.13 |
| AATAGAATAATCCTTACACACACACCCACACGAATA [CACACA_site8053] | 10.5 ± 0.48 |
| AACCAATATGCGTATACACACATAAATATAAATATA [CACACA_site3780] | 10.2 ± 0.27 |
| TTTTTTATATATTAGGAATTTATAAAATTAGAAGGT [GTGCAC_negctrl_site617] | 10.1 ± 0.35 |
| TTTTTTTTTTTTTGAACACACATTATTAATTTTTAT [CACACA_site308] | 9.85 ± 0.28 |
| ATATATTTTTTTTATACATGCAATGCATTTACGTTG [TGCATGCA_site565] | 10.02 ± 0.042 |
| AACCAGTTGATGTGTACACATATAGTAATAATTTTA [CACACA_site5564] | 11.6 ± 0.99 |
| TAATAAATTCAAAACATAAAAAGGAAAAAAAAAAAA [CACACA_negctrl_site1330] | 9.63 ± 0.14 |
| TTTTGAATATATTAAATAAATTAAAAATCTACAAAC [GTGCAC_negctrl_site622] | 9.77 ± 0.16 |
| AGATCATAATATTATACACACATTATATATCTGTAA [CACACA_site4925] | 9.925 ± 0.007 |
| TTTTTTTTTTTTTTGGTGCAGTTCACATATTATATA [GTGCAC_site9996] | 10 ± 0.61 |
| TTATTATATACAAAATGTACACAGAATAATTTGAAT [XGTACX_site2314] | 11.3 ± 0.87 |
| ATATATATATATATATGTACATAATATATTATATAT [XGTACX_site924] | 11.3 ± 0.98 |
| TTATTATATTAAAAGAGGACACATTTATTTTTTTTT [XGTACX_site1241] | 10.9 ± 0.67 |
| TATATTAACAAAATGGTGCAATAATTTCTATATTGT [GTGCAC_site9430] | 9.94 ± 0.071 |
| TGTGTAAGCACATACAAACACACAACCTTATTTTTA [CACACA_site2187] | 10.03 ± 0.042 |
| AAAAAAAAAAAAAAAAAAAAAAAAAAAAATAAAAAA [CACACA_negctrl_site59] | 11 ± 0.47 |
| AAAATATTTAATAGAAGTACACATGTATATATACAT [XGTACX_site8942] | 11.6 ± 1.2 |
| TTTCAATGTGACACGTGTCCGTAAAATTACATAATT [XGTACX_site7073] | 11 ± 0.59 |
| ATTAATAAAAGATAAAGTACAAATCGGAAAATGAAT [XGTACX_site7846] | 11.1 ± 0.54 |
| TTGTTCATCTTTTTTTTTTTTTTTTTTTTTTAAATC [CACACA_negctrl_site191] | 9.58 ± 0.085 |
| AAGATTAAACATTGCACACAGAAATATATTTTCTAT [CACACA_site2374] | 9.91 ± 0.099 |

| Sequence | gcPBM binding intensity (ln) |
| --- | --- |
| TTTATAATATGTTATACATGCAGGTACCTTTTTGTA [TGCATGCA_site746] | 10.7 ± 0.52 |
| TGAACTCATAGGAAAACACACATATGTGCAATATAT [CACACA_site6231] | 10.02 ± 0.078 |
| ACAATGATAGTGTAAAGTACATATATATAAAAAAAT [XGTACX_site5928] | 11.2 ± 0.7 |
| TGTTATTATTAAGACACACACACAAAAAAAAAAAAA [CACACA_site1481] | 10.1 ± 0.42 |
| ATTTATAATTTTTGAGCACACACAAGCATATATATA [CACACA_site8531] | 10.2 ± 0.13 |
| CTATACTATGAAAAGTGTACGAATAGCTAGCTATTT [XGTACX_site5927] | 11 ± 0.71 |
| TAGTAGTATTCATCCAGTACATATAAATGTATAATA [XGTACX_site7552] | 10.8 ± 0.57 |
| GAGCATTACACATATACACACATATAAATAAACATA [CACACA_site7315] | 10.1 ± 0.31 |
| ATATATTTTGGGGACTTTTTAAAAAAGAAGTATTAA [TGCATGCA_negctrl_site337] | 10.9 ± 0.53 |
| TTTTTGTTAATAAGTATGCACTATCTCATTTTTGTA | 10.04 ± 0.092 |
| TTTCTATTACGAACGTGTACATACATTATTCTTAAA [XGTACX_site5816] | 11.5 ± 0.86 |
| TAGAAAAAAATAGATGCATGCAATGAATGAATAATA [TGCATGCA_site14] | 9.91 ± 0.085 |
| CTTTGCATTACGAACATACACACAGAATAACTGAAA [CACACA_site3024] | 10.185 ± 0.007 |
| GAGAAATTTATACATACACACATATAAATATTATAG [CACACA_site7819] | 9.92 ± 0.042 |
| AAAAAGAAAAAACTTACACACATATATACACCCATG [CACACA_site8079] | 10.4 ± 0.12 |
| AATAATATATAAGAAAGTACAAAAAAATAAAATAAA [XGTACX_site3302] | 11 ± 0.55 |
| TTTTAATGAAATATCAAAAAAATTTATGATTTCAAA [GTGCAC_negctrl_site662] | 9.4 ± 0.19 |
| TTTTTTTTTTTGTGTGCATGTGCTAGGAAAGGTAGG [TGCATGCA_site330] | 10.5 ± 0.64 |
| ATATCAAATAGACAAACACACAAAGGAAGAGTGAAA [CACACA_site3921] | 9.95 ± 0.057 |
| TTCTTTTTTTTTTTTTTTTTTTTATAGTACAAAAAA [TGCATGCA_negctrl_site450] | 11 ± 0.86 |
| ATCTATATTATTTCTACACACATATCTATAATATGT [CACACA_site7561] | 10.2 ± 0.21 |
| AGAAGTTTATCTTTTAGTACGCATAAAAAAAAAAAA [XGTACX_site2359] | 11.2 ± 0.95 |

| Sequence | gcPBM binding intensity (ln) |
| --- | --- |
| TATAAATAATTATATTGTACTCTTTATATTTTTCTT [XGTACX_site5335] | 11.3 ± 0.71 |
| TTATATAAGGTCTATATATAAATATTAATGATAAGG [TGCATGCA_negctrl_site354] | 10.2 ± 0.31 |
| TTAAATAGCTGTAATTGTACAAATAAATACATAAAT [XGTACX_site3097] | 10.8 ± 0.45 |
| TATAGTAATATTTGAAGTACAAAATTAAAATAAATA [XGTACX_site7634] | 11.2 ± 0.69 |
| TATATTATTTTTTATTGTACTTAAAAATATTATTTG [XGTACX_site1443] | 11.4 ± 0.95 |
| TAAATATATATATGGTGTACCATTTTGGGTTAATAT [XGTACX_site2706] | 11.1 ± 0.57 |
| GGGAGGATATTTCACAGTACCCAGGAAATCTGCGGA [XGTACX_site2555] | 11 ± 0.84 |
| TTAATATTTTGATGTGTACACATTAAAATAGTTTTA [CACACA_site5712] | 11.8 ± 0.89 |
| ACAATTACTTATTTTAATTTTTTTAATCTATTGATT [CACACA_negctrl_site967] | 9.65 ± 0.12 |
| AATAACAATTATAAAAGTACAGATTTTTATTTCTAA [XGTACX_site5746] | 11.1 ± 0.79 |
| TCCTTATTTTGCAGGAGTACCATTTTTTAAAAATAC [XGTACX_site5968] | 11.4 ± 0.73 |
| TACTTTTCTTAAAGATGTACGTTTTAAAAATAAAAT [XGTACX_site14] | 11.4 ± 0.98 |
| CAACAATTTCGTCATACACACATTCAGAATATATAT [CACACA_site2370] | 10.27 ± 0.099 |
| TAAATACATAAAAATTGTACACATTGTTTTCTCTTT [XGTACX_site6435] | 11.3 ± 0.83 |
| TTTTTTTTGTTATGAACATGCAAATTAAAATATAAT [TGCATGCA_site954] | 10.1 ± 0.35 |
| AAGGAAATAATTAAATGTACAAAAAAAAAAAAAATT [XGTACX_site562] | 10.7 ± 0.4 |
| AAAATAAAAATTAACTGTACATACATTATTCAAATT [XGTACX_site6106] | 11.2 ± 0.66 |
| ATATTTTTTTTTCTTTCGCACACGTGAAAGAATTTC [CACACA_site8636] | 10.2 ± 0.21 |
| TTTTATGCTCAATTATTAAGAAATACTTTTTCTTCC [XGTACX_negctrl_site208] | 10.02 ± 0.042 |
| TTAAAAAAAATATAATGTACTTGTAGAATTATATTT [XGTACX_site6220] | 11 ± 0.76 |
| TATATTTTTTATAAATGTACATGGATAGGCATAAAC [XGTACX_site8401] | 11.2 ± 0.61 |
| TCAAAAATGAGTTACACACACACATATATATATATA [CACACA_site2229] | 10.2 ± 0.35 |

| Sequence | gcPBM binding intensity (ln) |
| --- | --- |
| ATATGAATAAATAAAAGTACATACATAATGTATTAT [XGTACX_site5969] | 11.3 ± 0.69 |
| TATAAAAAATAATTATCATGAAATATATGATCATCA [TGCATGCA_negctrl_site137] | 9.65 ± 0.071 |
| ATTATTATTTATATGATACACACGTACATATACGCA [CACACA_site3823] | 11.5 ± 1.1 |
| TAATAATAAAATATTTGTACATATAAAATATGGCTG [XGTACX_site7904] | 10.9 ± 0.57 |
| AATATAATGCAATATACACACATATATTTCTCTTTT [CACACA_site7276] | 9.64 ± 0.19 |
| AGTATATAAAATACTGTATCGATGGGGGAGGGCGCA [CACACA_negctrl_site1612] | 11.4 ± 0.73 |
| ACAAATAAATAAAAAACACACACAAATAAATAAATA [CACACA_site8708] | 9.905 ± 0.049 |
| AATTTTTTTCTCCAAGTGCATTAGAACATTAACGTA [GTGCAC_site9413] | 10.2 ± 0.26 |
| ATATATTTATGTATCACACACAAAAAAAAAAAATAA [CACACA_site255] | 10.1 ± 0.29 |
| TATATATTAATAAATAGTACCCGTGGAATTTATATT [XGTACX_site5855] | 11.1 ± 0.54 |
| GTTGCAATTAACACTAGTACATATAAGTAGTTTATT [XGTACX_site2063] | 10.9 ± 0.57 |
| ATTGTTCTCCAAAAGTGTACGTATTATTTTTCTGGA [XGTACX_site1404] | 11.6 ± 0.76 |
| TATTAATCTTTTTTTAAACAAAAAATTAAGCAAATT [CACACA_negctrl_site884] | 9.795 ± 0.035 |
| AGTATAAGCATTATTGTGCACATAATTATAATTTTT | 10.4 ± 0.16 |
| AGTTTAAATTAAATTACACACTACGAATAATATATT [CACACA_site7811] | 9.895 ± 0.007 |
| TATATATTATATATATGTACATACTTTTTACGTTCA [XGTACX_site2493] | 11.3 ± 0.72 |
| AAATTAATTAAATATACACACATATATAGATATATA [CACACA_site6321] | 9.53 ± 0.26 |
| ACCACATTTTTTTTTGCATGTTGTTTAAAAAAAGGC [TGCATGCA_site137] | 10.1 ± 0.14 |
| AATTATTGTGAAGGGAAAACAAAAAAGTTTATAATT [CACACA_negctrl_site1337] | 9.995 ± 0.092 |
| AACTAATAAAAAAAAAGTACACAATATGTAAATAAC [XGTACX_site5263] | 11.6 ± 0.91 |
| AAGCGAATATATATCACACACAAAAAAATCAGACTA [CACACA_site2108] | 9.94 ± 0.11 |
| AACAAATATATTAACACACAAACATATAAACCAATG [CACACA_site3970] | 10.1 ± 0.11 |
